Measurements taken from PubChem BioAssay AID1159614 (National Center for Advancing Translational Sciences (NCATS), 2016).
Hit rate of the full screen: of about 45,000 compounds, about 65 (0.1%) were called active. The call rests on the fitted dose curve; in most records, active means well fitted activation curve with a large enough effect; inconclusive means small, poorly fitted or top-dose-only effect; inactive means no such curve, though single readings can be large or run the other way. This is one part of the list.

The molecules below were run against Galactocerebrosidase (Homo sapiens) (UniProt P54803) (assay: A Novel Cell-Based Assay to Identify Small Molecules for B -Galactocerebrosidase). Conditions: 145M-Twi-hGALC-G270D cells (Twitcher mouse brain line with human GALC G270D), HMU-beta-Gal fluorescence, 48 h; series mostly up to 57.5 µM; activation: at the top concentration.
Summary of the method: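 Fluorescence readout: HMU-β-gal cleavage by mutant GALC (0.1 mM final, citrate/phosphate pH 5.2 with 1 mg/mL taurocholate), stopped with carbonate/bicarbonate plus Triton X-100. Cells: murine Twitcher 145M-Twi expressing human G270D GALC; qHTS for activators.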
Further: 0% is about no effect; nearly all actives have a fitted effect of over 65% in size.

UniProt P54803, sequence (P54803 whole entry, looked up): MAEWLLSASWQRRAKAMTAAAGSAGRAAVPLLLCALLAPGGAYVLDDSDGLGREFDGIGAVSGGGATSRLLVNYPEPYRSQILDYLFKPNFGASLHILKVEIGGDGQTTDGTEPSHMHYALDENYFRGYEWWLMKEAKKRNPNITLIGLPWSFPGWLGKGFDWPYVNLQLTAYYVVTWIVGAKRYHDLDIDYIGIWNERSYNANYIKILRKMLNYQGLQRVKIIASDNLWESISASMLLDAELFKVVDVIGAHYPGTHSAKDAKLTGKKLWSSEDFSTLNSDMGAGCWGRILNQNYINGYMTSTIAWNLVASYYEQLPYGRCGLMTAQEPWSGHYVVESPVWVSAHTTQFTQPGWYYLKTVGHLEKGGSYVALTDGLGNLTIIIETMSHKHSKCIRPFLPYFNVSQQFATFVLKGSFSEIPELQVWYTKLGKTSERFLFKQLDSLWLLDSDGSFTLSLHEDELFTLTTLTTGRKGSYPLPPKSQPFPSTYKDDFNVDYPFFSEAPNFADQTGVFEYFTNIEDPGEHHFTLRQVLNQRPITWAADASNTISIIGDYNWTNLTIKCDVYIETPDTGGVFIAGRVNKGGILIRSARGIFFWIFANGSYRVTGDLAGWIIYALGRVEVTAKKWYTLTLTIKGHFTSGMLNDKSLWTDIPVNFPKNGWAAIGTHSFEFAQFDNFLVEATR

activation, inactive:
Cc1ccc(NC(=O)C2CCN(c3cc(C)nc4c(-c5ccc(Cl)cc5)c(C)nn34)CC2)c(C)c1 -11.6%
COc1ccccc1N1CCN(C(=O)CN2C(=O)COc3ccc(S(=O)(=O)N4CCC(C)CC4)cc32)CC1 1.94%
Cn1ncc2nc(SCC(=O)Nc3ccc(Br)cc3F)n(Cc3ccccc3)c(=O)c21 -1.07%
Cc1ccn2c(=O)cc(COc3ccc(NC(=O)c4ccccc4F)cc3)nc2c1 -8.18%
CCOc1ccc(NC(=O)CSc2nc3c(oc4ccccc43)c(=O)n2CCOC)cc1 -0.773%
COc1cc2[nH]c(=O)n(CCCC(=O)N3CCN(c4cccc(C(F)(F)F)c4)CC3)c(=O)c2cc1OC -6.76%
COc1ccc(N2CCN(c3oc(-c4ccc(COc5cccc(C)c5)o4)nc3C#N)CC2)cc1 -5.25%
Cc1ccc(NC(=O)CN(C)S(=O)(=O)c2ccc3[nH]c4c(c3c2)CCCC4)c(Cl)c1 -13.7%
COc1ccc(CC(=O)NCCc2csc3nc(-c4ccccc4F)nn23)cc1 -13.9%
COc1cccc2cc(-c3nnc(Nc4c(F)cccc4F)s3)c(=O)oc12 -8.01%
CSc1ncc(C(=O)N2CCN(c3cc(Cl)ccc3C)CC2)c(C)n1 -10.1%
CCCN(C(=O)CCc1nc(-c2ccc(OC)cc2)no1)c1ccccc1F -18.9%
COc1cc(-c2nc(Cn3nnc(C(=O)Nc4ccc(C)cc4C)c3C)c(C)o2)cc(OC)c1OC -11.4%
Cc1oc(-c2ccccc2F)nc1CS(=O)(=O)CC(=O)NCCc1ccc(Cl)cc1 -4.77%
Cc1ccc(C)c2sc(N3CCN(C(=O)C(C)(C)C)CC3)nc12 16.1%
CCN(CCCNC(=O)c1cc2c(Cl)nc3ccccc3c2s1)Cc1ccccc1 16.3%
CCOc1ccc(CCNC(=O)c2ccc(-n3c(C)cc4c3CCC(C)C4)cc2)cc1OCC (centres undefined) -16.6%
CCC(=O)c1cc2c(cc1NC(=O)c1ccccc1F)OCCO2 -12.2%
CCN(CC)c1sc(S(=O)(=O)c2ccccc2)nc1S(=O)(=O)c1ccc(C)cc1 -9.43%
CC1=C(C(=O)Nc2ccc(C)cc2Cl)C2(CCCCCC2)OC1=O -9.83%
CC(=O)N1c2ccc(S(=O)(=O)NCCC(=O)Nc3ccc(Br)c(C)c3)cc2CC1C (centres undefined) -16%
Cc1cccc(NC(=O)c2sc3nc(N4CCOCC4)c4c(c3c2N)CC(C)(C)OC4)c1 -13.7%
COc1ccc(NC(=O)Cn2ncc3c2-c2ccccc2OC3)cc1Cl -27.6%
O=C(CSc1nc2c([nH]c3ccccc32)c(=O)n1-c1ccccc1)Nc1ccc2c(c1)OCCO2 -16.7%
COc1ccccc1C(=O)Nc1ccc(OCc2cc(=O)n3ccsc3n2)cc1 0.52%
CCCCOc1cccc(C(=O)N(Cc2cccs2)c2ccc(OC)cc2)c1 -13.3%
CCCCNC(=O)C1CCC(CNS(=O)(=O)c2ccc(Cl)cc2)CC1 (centres undefined) -0.734%
CCc1ccc(S(=O)(=O)N(C(=O)Oc2ccccc2)c2ccc3oc(C)c(C(=O)OC)c3c2)cc1 -29%
CC(C)(C)c1ccc(-c2nc(SCC(=O)Nc3ccc(Cl)cc3)[nH]c(=O)c2C#N)cc1 -10.4%
CC(=O)NCCn1c(SCC(=O)Nc2ccc(C)cc2)nc2ccccc2c1=O -19.5%
CCN(CC)CCNC(=O)Nc1ccc2c(c1)N(Cc1ccccc1)C(=O)c1ccccc1S2 -9.96%
COc1ccc(N2CC(NC(=O)c3ccc(S(=O)(=O)N4CCOCC4)cc3)CC2=O)cc1OC (centres undefined) 3.06%
COc1ccccc1CNC(=O)CC(c1ccc(OC)c(OC)c1)N1Cc2ccccc2C1=O (centres undefined) -25.6%
CCc1cnc2c(c1SCC(=O)c1ccc(OC)cc1)c(=O)n(C)c(=O)n2C -15.4%
COc1ccc(OC)c(/C=C/C(=O)Nc2ccc(C(=O)OCCC(C)C)cc2)c1 -12.4%
O=S(=O)(NCc1ccc(Cl)cc1)c1ccc(-c2cnc(C3CC3)o2)cc1 -8.96%
Cc1ccccc1CN1C(=O)c2ccccc2Sc2ccc(C(=O)NC3CCCC3)cc21 1.28%
CCN(Cc1ccccc1)c1ncnc2c1nnn2C -24.3%
CCCCN(CCCC)C(=O)C1CCN(S(=O)(=O)c2cccc3nsnc23)CC1 7.98%
Cc1ccc(Cl)cc1-n1ncc2c(N3CCCCCC3)ncnc21 -29.8%
COc1cccc(-n2c(-c3cccc(F)c3)nc3c(cnn3-c3ccc(C)cc3)c2=O)c1 -7.02%
Cc1c(-c2ccc(Cl)cc2)c(=O)oc2ccc(OC(=O)N3CCOCC3)cc12 -20.5%
CCc1ccc(S(=O)(=O)c2nnn3c2nc(Nc2ccc(F)cc2)c2cc(Cl)ccc23)cc1 22.1%
CCC(C)NC(=O)CCSc1nc(-c2ccc(OC)cc2)cc(C(F)(F)F)n1 (centres undefined) -2.7%
O=C(O)c1cccc(Nc2ncnc3scc(-c4ccccc4)c23)c1 -21.4%
O=C(NCc1ccc(F)cc1)c1cc(-c2ccc(Cl)cc2)n[nH]1 -9.23%
Cc1ccc(C(=O)Nc2nnc(S(=O)(=O)N3CCc4ccccc43)s2)cc1 -7.41%
Cc1ccccc1C(=O)Oc1c(Sc2ccccc2)c(C)nn1C(C)(C)C -10.8%
COc1ccc(NC(=O)c2cc(CN3CCCC3)on2)cc1Cl -10.5%
CCOc1ccc(CCNC(=O)CCSCc2ccc(Cl)cc2)cc1OCC -11.1%
CCOC(=O)CSc1nc2sc3c(c2c(=O)n1-c1ccccc1)CCC(C(C)(C)C)C3 (centres undefined) -26.5%
CCC(=O)N1CCc2cc(Br)cc(S(=O)(=O)N3CCCC(C(=O)Nc4cccc(F)c4)C3)c21 (centres undefined) -11.4%
CC(C)Oc1ccc(CNC(=O)c2cccc(NC(=O)N3CCSc4ncccc43)c2)cc1 -9.8%
Cc1cccc(Cc2c(C)nc3nc(SCC(=O)NCc4ccccc4)nn3c2C)c1 -6.71%
CCOc1ccc(NC(=O)c2cnc(Nc3ccccc3OC)c3ccccc23)cc1 -10.4%
COc1ccc(CCNC(=O)Cn2ncc3c(=O)oc4ccccc4c32)c(OC)c1 -15.3%
CCOc1ccc(NC(=O)c2oc3ccccc3c2NC(=O)c2cc(C)cc(C)c2)cc1 -5.16%
CCc1ccc2oc(-c3cc(NC(=O)c4cccnc4)cc(C)c3O)nc2c1 -8.19%
COc1ccc(CC(=O)NCc2ccc3c(c2)CCN3C(=O)c2ccc(Cl)cc2)cc1 -15.1%
CCOC(=O)c1cc(-c2ccccc2)n(-c2cccc(C(=O)Nc3cc(OC)cc(OC)c3)c2)c1C 1.12%
Cc1cc(C)cc(Oc2c(C(F)(F)F)oc3cc(OCC(=O)NC4CCCCC4)ccc3c2=O)c1 -9.63%
CCOC(=O)c1sc(NC(=O)c2cc3nc(-c4ccccc4)cc(C(F)(F)F)n3n2)c(C(=O)OCC)c1C -0.139%
Cn1c(=O)oc2cc(S(=O)(=O)N3CCC(C(=O)Nc4ccc(F)c(Cl)c4)CC3)ccc21 -21.3%
O=C(Nc1cccc(Br)c1)N1CCC(CN2CCCCCC2)CC1 -8.09%
COc1cccc(CNC(=O)CN(c2ccc(C(C)C)cc2)S(=O)(=O)c2c(C)noc2C)c1 -2.65%
COC(=O)c1ccc(OCC2c3cc(OC)c(OC)cc3CCN2C(=O)Cc2ccccc2)cc1 (centres undefined) -19.4%
Cn1cnnc1SCC(=O)Nc1ccc(C#N)cc1 -16.3%
CN(CC(=O)NCc1ccccc1)S(=O)(=O)c1ccc2[nH]c3c(c2c1)CCCC3 -14.4%
COC(=O)c1c(Cl)c(Cl)c(C(=O)OC)c(Cl)c1Cl -2.71% [at 114 µM]
CC(C)(C)C1CCc2c(sc(NC(=O)c3ccc(Cl)cc3)c2C(=O)NCc2ccco2)C1 (centres undefined) -18.6%
COc1ccccc1N1CCN(c2ncnc3c2cnn3-c2cccc(Cl)c2)CC1 -14.1%
COc1ccc(-c2[nH]c(-c3cccc(OC)c3)nc2SCC(=O)NC2CCCC2)cc1 -23.1%
O=S(=O)(NCC(c1cccs1)S(=O)(=O)c1ccccc1)c1ccc(F)c(C(F)(F)F)c1 (centres undefined) -22.7%
CCN(Cc1ccccc1)S(=O)(=O)c1cc(C(=O)Nc2cc(Cl)cc(Cl)c2)ccc1F -19.8%
COc1ccc(-c2cn3nc(N4CCCC(C(=O)Nc5cc(C)cc(C)c5)C4)sc3n2)cc1 (centres undefined) -0.428%
CCc1ccccc1NC(=O)C1(C)Cc2ccccc2C(=O)O1 (centres undefined) -13.8%
O=C(C1CCN(S(=O)(=O)c2ccc(Br)s2)CC1)N1CCN(c2ccccc2)CC1 -8.99%
CC(C)(C)OC(=O)N1CCC(c2c(C(=O)NCCc3ccccc3)cnn2-c2ccc(F)cc2)CC1 -7.16%
CCN(CC)S(=O)(=O)c1ccc(C(=O)N2CC(=O)Nc3ccc(F)cc3C2c2ccccc2)cc1 (centres undefined) -5.07%
CCc1ccc(-c2nn(CC(=O)NCc3ccccc3)c3c2cnc2ccc(F)cc23)cc1 -20.6%
COc1ccc(OCC(=O)NCc2ccc3c(c2)CCN3C(=O)c2ccc(F)cc2)cc1 -17%
CC(=O)Nc1ccc2nc(SCCOc3cc(C)cc(C)c3)sc2c1 -29.8%
COc1ccc(CCN2C(=O)NC(NS(=O)(=O)c3ccc(NC(C)=O)cc3)(C(F)(F)F)C2=O)cc1OC (centres undefined) -5.78%
COc1cc(NC(=O)c2c(C)oc3c2C2=NCCN2C=N3)cc(OC)c1OC -20.8%
CC(=O)N1c2ccc(S(=O)(=O)NCC3CCC(C(=O)Nc4cc(C)ccc4C)CC3)cc2CC1C (centres undefined) 13.5%
CN(C)c1ccc(/C=C(\C#N)c2nc(-c3ccc(Cl)c(Cl)c3)cs2)cc1 -11.8%
COC(=O)c1cc(S(N)(=O)=O)ccc1OC -7.33%
COc1cc(NC(=O)COCc2cc(-c3ccc4c(c3)OCO4)on2)cc(OC)c1 -14.8%
CCn1cc(S(=O)(=O)c2ccccc2)c(=O)c2cc(F)c(N3CCN(c4ccccc4)CC3)cc21 -3.65%
CCN(CC)C(=O)c1sc2c(c1C)c(=O)n(-c1ccc(OC)cc1OC)c(=O)n2CC(=O)c1ccc(Cl)cc1 -16.1%
O=C(Nc1ccc(OC(F)(F)F)cc1)C1CCN(S(=O)(=O)c2cccs2)CC1 -5.38%
COc1cc(NC(=O)c2oc3c(c2C)-c2nn(Cc4cccc(Cl)c4)cc2CC3)cc(OC)c1 -19.4%
CCOc1ccc(N(C(C)C(=O)Nc2cc(Cl)ccc2OC)S(C)(=O)=O)cc1 (centres undefined) -11.9%
Cc1ccc(-n2c(=O)c3c(cnn3C)n(Cc3ccccc3F)c2=O)cc1 5.2%
